{"source": "the supplement of paper PMC8728848", "binders": {"B1": {"name": "SSA (Sclerotinia sclerotiorum), A7XUK7 (protein)", "chain": "MGFKGVGTYEIVPYQAPSLNLNAWEGKLEPGAVVRTYTRGDKPSDNAKWQVALVAGSGDSAEYLIINVHSGYFLTATKENHIVSTPQISPTDPSARWTIKPATTHQYEVFTINNKVSELGQLTVKDYSTHSGADVLSASAKTADNQKWYFDAK"}}, "assay_in_all_cases": "glycan array binding signal (z-score within array); higher = stronger binding", "conditions_in_all_cases": "glycan notation: IUPAC condensed, linker removed", "key": {"[1]": {"target": "Neu5Ac(a2-3)Gal(b1-3)[Fuc(a1-4)]GlcNAc(b1-3)Gal(b1-3)[Fuc(a1-4)]GlcNAc", "outline": "(§1)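 The Consortium for Functional Glycomics database supplied 3228 glycan arrays, of which those lacking an available protein sequence were dropped. The binding signal, a within-array Z-score, was averaged across arrays of the same protein sequence and across linkers. Negative scores can be read as non-binding.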"}, "[2]": {"target": "Neu5Ac(a2-3)Gal(b1-3)[Fuc(a1-4)]GlcNAc(b1-3)Gal(b1-4)[Fuc(a1-3)]GlcNAc", "outline": "as §1"}, "[3]": {"target": "Neu5Ac(a2-3)Gal(b1-3)[Neu5Ac(a2-3)Gal(b1-4)]GlcNAc", "outline": "as §1"}, "[4]": {"target": "Neu5Ac(a2-3)Gal(b1-3)[Neu5Ac(a2-6)]GalNAc", "outline": "as §1"}, "Neu5Ac(a2-3)Gal(b1-4)Glc": {"target": "Neu5Ac(a2-3)Gal(b1-4)Glc", "outline": "as §1"}, "[5]": {"target": "Neu5Ac(a2-3)Gal(b1-4)GlcNAc", "outline": "as §1"}, "[6]": {"target": "Neu5Ac(a2-3)Gal(b1-4)GlcNAc(b1-2)Man(a1-3)[GlcNAc(b1-2)Man(b1-4)GlcNAc(b1-2)Man(a1-6)]Man(b1-4)GlcNAc(b1-4)GlcNAc", "outline": "as §1"}, "[7]": {"target": "Neu5Ac(a2-3)Gal(b1-4)GlcNAc(b1-2)Man(a1-3)[Neu5Ac(a2-3)Gal(b1-4)GlcNAc(b1-2)Man(a1-6)]Man(b1-4)GlcNAc(b1-4)GlcNAc", "outline": "as §1"}, "[8]": {"target": "Neu5Ac(a2-3)Gal(b1-4)GlcNAc(b1-2)Man(a1-3)[Neu5Ac(a2-6)Gal(b1-4)GlcNAc(b1-2)Man(a1-6)]Man(b1-4)GlcNAc(b1-4)GlcNAc", "outline": "as §1"}, "[9]": {"target": "Neu5Ac(a2-3)Gal(b1-4)GlcNAc(b1-3)Gal(b1-3)GlcNAc", "outline": "as §1"}, "[10]": {"target": "Neu5Ac(a2-3)Gal(b1-4)GlcNAc(b1-3)Gal(b1-4)GlcNAc", "outline": "as §1"}, "[11]": {"target": "Neu5Ac(a2-3)Gal(b1-4)GlcNAc(b1-3)Gal(b1-4)GlcNAc(b1-3)Gal(b1-4)GlcNAc", "outline": "as §1"}, "[12]": {"target": "Neu5Ac(a2-3)Gal(b1-4)GlcNAc(b1-3)Gal(b1-4)[Fuc(a1-3)]GlcNAc", "outline": "as §1"}, "[13]": {"target": "Neu5Ac(a2-3)Gal(b1-4)GlcNAc(b1-3)GalNAc", "outline": "as §1"}, "[14]": {"target": "Neu5Ac(a2-3)Gal(b1-4)GlcNAc(b1-6)[Gal(b1-3)]GalNAc", "outline": "as §1"}, "[15]": {"target": "Neu5Ac(a2-3)Gal(b1-4)GlcNAc(b1-6)[Neu5Ac(a2-3)Gal(b1-3)]GalNAc", "outline": "as §1"}, "[16]": {"target": "Neu5Ac(a2-3)Gal(b1-4)GlcNAc6S", "outline": "as §1"}, "[17]": {"target": "Neu5Ac(a2-3)Gal(b1-4)[Fuc(a1-3)]GlcNAc", "outline": "as §1"}, "[18]": {"target": "Neu5Ac(a2-3)Gal(b1-4)[Fuc(a1-3)]GlcNAc(b1-3)Gal", "outline": "as §1"}, "[19]": {"target": "Neu5Ac(a2-3)Gal(b1-4)[Fuc(a1-3)]GlcNAc(b1-3)Gal(b1-4)GlcNAc", "outline": "as §1"}, "[20]": {"target": "Neu5Ac(a2-3)Gal(b1-4)[Fuc(a1-3)]GlcNAc(b1-3)Gal(b1-4)[Fuc(a1-3)]GlcNAc(b1-3)Gal(b1-4)[Fuc(a1-3)]GlcNAc", "outline": "as §1"}, "[21]": {"target": "Neu5Ac(a2-3)Gal(b1-4)[Fuc(a1-3)]GlcNAc(b1-6)[Gal(b1-3)]GalNAc", "outline": "as §1"}, "[22]": {"target": "Neu5Ac(a2-3)Gal(b1-4)[Fuc(a1-3)]GlcNAc(b1-6)[Neu5Ac(a2-3)Gal(b1-3)]GalNAc", "outline": "as §1"}, "[23]": {"target": "Neu5Ac(a2-3)Gal(b1-4)[Fuc(a1-3)]GlcNAc6S", "outline": "as §1"}, "[24]": {"target": "Neu5Ac(a2-3)Gal6S(b1-4)GlcNAc", "outline": "as §1"}, "[25]": {"target": "Neu5Ac(a2-3)Gal6S(b1-4)[Fuc(a1-3)]GlcNAc", "outline": "as §1"}, "Neu5Ac(a2-3)GalNAc": {"target": "Neu5Ac(a2-3)GalNAc", "outline": "as §1"}, "[26]": {"target": "Neu5Ac(a2-3)GalNAc(b1-4)GlcNAc", "outline": "as §1"}, "[27]": {"target": "Neu5Ac(a2-3)[GalNAc(b1-4)]Gal(b1-4)Glc", "outline": "as §1"}, "[28]": {"target": "Neu5Ac(a2-3)[GalNAc(b1-4)]Gal(b1-4)GlcNAc", "outline": "as §1"}, "[29]": {"target": "Neu5Ac(a2-3)[Neu5Ac(a2-6)]GalNAc", "outline": "as §1"}, "Neu5Ac(a2-6)Gal": {"target": "Neu5Ac(a2-6)Gal", "outline": "as §1"}, "Neu5Ac(a2-6)Gal(b1-4)Glc": {"target": "Neu5Ac(a2-6)Gal(b1-4)Glc", "outline": "as §1"}, "[30]": {"target": "Neu5Ac(a2-6)Gal(b1-4)GlcNAc", "outline": "as §1"}, "[31]": {"target": "Neu5Ac(a2-6)Gal(b1-4)GlcNAc(b1-2)Man(a1-3)Man(b1-4)GlcNAc(b1-4)GlcNAc", "outline": "as §1"}, "[32]": {"target": "Neu5Ac(a2-6)Gal(b1-4)GlcNAc(b1-2)Man(a1-3)[Gal(b1-4)GlcNAc(b1-2)Man(a1-6)]Man(b1-4)GlcNAc(b1-4)GlcNAc", "outline": "as §1"}, "[33]": {"target": "Neu5Ac(a2-6)Gal(b1-4)GlcNAc(b1-2)Man(a1-3)[GlcNAc(b1-2)Man(a1-6)]Man(b1-4)GlcNAc(b1-4)GlcNAc", "outline": "as §1"}}, "note": "This is one part of the list."}
{"binder": "B1", "values": [{"measurement": "glycan array binding signal (z-score)", "setting": "[1]", "value": -0.175}, {"measurement": "glycan array binding signal (z-score)", "setting": "[2]", "value": -0.301}, {"measurement": "glycan array binding signal (z-score)", "setting": "[3]", "value": -0.184}, {"measurement": "glycan array binding signal (z-score)", "setting": "[4]", "value": 0.198}, {"measurement": "glycan array binding signal (z-score)", "setting": "Neu5Ac(a2-3)Gal(b1-4)Glc", "value": -0.186}, {"measurement": "glycan array binding signal (z-score)", "setting": "[5]", "value": -0.233}, {"measurement": "glycan array binding signal (z-score)", "setting": "[6]", "value": -0.291}, {"measurement": "glycan array binding signal (z-score)", "setting": "[7]", "value": -0.446}, {"measurement": "glycan array binding signal (z-score)", "setting": "[8]", "value": -0.264}, {"measurement": "glycan array binding signal (z-score)", "setting": "[9]", "value": -0.297}, {"measurement": "glycan array binding signal (z-score)", "setting": "[10]", "value": -0.244}, {"measurement": "glycan array binding signal (z-score)", "setting": "[11]", "value": -0.152}, {"measurement": "glycan array binding signal (z-score)", "setting": "[12]", "value": -0.158}, {"measurement": "glycan array binding signal (z-score)", "setting": "[13]", "value": -0.425}, {"measurement": "glycan array binding signal (z-score)", "setting": "[14]", "value": -0.127}, {"measurement": "glycan array binding signal (z-score)", "setting": "[15]", "value": -0.196}, {"measurement": "glycan array binding signal (z-score)", "setting": "[16]", "value": -0.028}, {"measurement": "glycan array binding signal (z-score)", "setting": "[17]", "value": -0.307}, {"measurement": "glycan array binding signal (z-score)", "setting": "[18]", "value": -0.355}, {"measurement": "glycan array binding signal (z-score)", "setting": "[19]", "value": -0.301}, {"measurement": "glycan array binding signal (z-score)", "setting": "[20]", "value": -0.248}, {"measurement": "glycan array binding signal (z-score)", "setting": "[21]", "value": -0.138}, {"measurement": "glycan array binding signal (z-score)", "setting": "[22]", "value": -0.065}, {"measurement": "glycan array binding signal (z-score)", "setting": "[23]", "value": 0.027}, {"measurement": "glycan array binding signal (z-score)", "setting": "[24]", "value": -0.161}, {"measurement": "glycan array binding signal (z-score)", "setting": "[25]", "value": -0.211}, {"measurement": "glycan array binding signal (z-score)", "setting": "Neu5Ac(a2-3)GalNAc", "value": -0.192}, {"measurement": "glycan array binding signal (z-score)", "setting": "[26]", "value": -0.127}, {"measurement": "glycan array binding signal (z-score)", "setting": "[27]", "value": -0.14}, {"measurement": "glycan array binding signal (z-score)", "setting": "[28]", "value": -0.13}, {"measurement": "glycan array binding signal (z-score)", "setting": "[29]", "value": -0.089}, {"measurement": "glycan array binding signal (z-score)", "setting": "Neu5Ac(a2-6)Gal", "value": -0.181}, {"measurement": "glycan array binding signal (z-score)", "setting": "Neu5Ac(a2-6)Gal(b1-4)Glc", "value": -0.226}, {"measurement": "glycan array binding signal (z-score)", "setting": "[30]", "value": -0.364}, {"measurement": "glycan array binding signal (z-score)", "setting": "[31]", "value": -0.135}, {"measurement": "glycan array binding signal (z-score)", "setting": "[32]", "value": -0.176}, {"measurement": "glycan array binding signal (z-score)", "setting": "[33]", "value": -0.226}]}
